The list shows a part of the results.

The test system of this assay is T1, C. trachomatis L2/434/Bu expressing GFP (CTL2-GFP).
T1 construct: L2/434/Bu GFP intracellular growth in HeLa cells
Details: species or system HeLa; C. trachomatis total inclusion area by high-content imaging, normalised to DMSO. Conditions: total inclusion area; 28.5 h, 10 µM; inhibitor. A digest of the protocol: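 Imaging read-out: GFP inclusions and Hoechst nuclei captured by high-content imaging after fixation. Inclusion area/number = chlamydial growth; nuclei count = host cell viability. MIC calculated per earlier method.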
For `O=C(CSc1ncnc2[nH]ncc12)c1ccc(-c2ccccc2)cc1` [CBK300519], the “% of control remaining” value was found to be 143.425.
As for `CN1CCC(N[C@H]2CC(C)(C)[C@@H]3C[C@@](C)(O)CC[C@]23CCC(=O)N2CCOCC2)CC1` [CBK289040], the figure is 108.754; as for `O=C(Cn1nnc2ccccc21)NC(c1ccccc1)c1ccccc1` [CBK297488], 75.1743; as for `Cc1ccc(Nc2ncc(C(=O)NCCCN3CCCCCC3)c3ccccc23)cc1Cl` [CBK291197], 104.486.
As for `O=C(CC1Nc2ccccc2NC1=O)Nc1ccc(F)c(Cl)c1` (centres unmarked) [CBK266381], the “% of control remaining” value is recorded as 103.671.
As for `O=C(CCOc1ccccc1)Nc1cnc(-c2ccc(F)cc2)c(-c2ccco2)n1` [CBK036967], the figure is 80.9841.
As for `COc1ccc(Br)cc1S(=O)(=O)NCC(=O)Nc1ccc(F)cc1` [CBK042223], the figure is 63.0956.
As for `C=CCn1c(=O)c(C(=O)NCCCO)c(O)c2ccccc21` [CBK262481], the figure is 78.6167; as for `Cc1nn(CC(=O)N2CCCCC2)c(=O)c2cc3sccc3n12` [CBK284040], 107.102.
For the compound `Cc1ccc(NC(=O)c2cc(NC(=O)c3ccccc3C(=O)O)ccc2N2CCCCC2)cc1` [CBK265332], the “% of control remaining” value is reported as 91.0348.
As for `COc1ccc(NS(=O)(=O)c2cc(C(=O)O)cc(C)c2C)cc1OC` [CBK295148], the figure is 77.5171; as for `Cn1ccnc1C(O)(c1ccccc1)c1nccn1C` [CBK262084], 91.5377.
As for `Cc1ccc(-c2cc(CC3(C(=O)NC4CC4)CCOCC3)on2)cc1` [CBK284946], the figure is 74.8614; as for `c1cncc(CNc2nc(-c3cccs3)cn3ccnc23)c1` [CBK066687], 125.346.
As for `COc1ccccc1-c1nccnc1NCC(C)O` (centres unmarked) [CBK037637], the figure is 90.5866; as for `COc1cncc(-c2cc(Nc3ccc(O)cc3)ncn2)c1` [CBK090752], 92.637.
Take `CC1(C)CC(=O)C(C(=S)Nc2ccc(F)cc2)=C(NCc2ccc3c(c2)OCO3)C1` [CBK264779]: the “% of control remaining” value came out at 123.401.
As to `c1c(CC2CCCCC2)nnn1[C@H]1CO[C@H]2[C@@H]1OC[C@@H]2NCC1CC1` [CBK289511], the “% of control remaining” value stood at 78.3771.
As for `CCOc1ccc(NC(=O)N(Cc2ccccn2)CC2CCCO2)cc1` (centres unmarked) [CBK306847], the figure is 84.0776; as for `O=C(Cc1ccccc1)Nc1ccc(Oc2ccc(C(=O)O)c(C(=O)O)c2)cc1` [CBK263611], 99.6713.
As for `COc1ccc(OCC(=O)Nc2cc3oc4ccccc4c3cc2OC)cc1` [CBK262608], the figure is 102.342; as for `COCCN1C(=O)C2(CC(=O)N(Cc3ccccc3)C2=O)c2cc(OC)ccc21` (centres unmarked) [CBK075177], 92.5964; as for `Cc1cc(NC(=O)c2ccc(Br)cc2)nc2c1c(=O)oc1ccccc12` [CBK291262], 96.1533.
As for `Cc1[nH]c2ccccc2c1C(=O)CSc1nc(N)cc(=O)[nH]1` [CBK297511], the figure is 69.4434.
For `CN(C)c1cccc(-c2cc(Nc3ccc4c(c3)OCCO4)ncn2)c1` [CBK090808], the “% of control remaining” value was 51.7227.
`CCNS(=O)(=O)c1ccc2c(c1)N(Cc1nc(-c3ccco3)no1)CC2` [CBK306184]: the “% of control remaining” value came out at 29.0182.
Regarding `Nc1cc(Cl)nc(SCC2CCCCC2)n1` [CBK007970], the “% of control remaining” value was determined as 30.0599.
As for `Nc1cc(O)n(Cc2ccco2)c(=S)n1` [CBK006010], the figure is 86.9611; as for `CCCCCOc1ccc(NS(=O)(=O)c2cccc(C(=O)O)c2)cc1` [CBK299795], 107.091.
As for `FC(F)(F)c1ccc(CN2CCC(Oc3nccnc3OCc3cccnc3)CC2)cc1` [CBK083160T], the figure is 100.343; as for `O=C(C1CC2C=CC1C21CC1)N1CCC(Oc2cccnc2)CC1` (centres unmarked) [CBK281501], 92.9074; as for `CCN1C(=O)COC[C@@H]1[C@H](O)c1ccc(NC(=O)c2ccc(C#N)cc2)cc1` [CBK289689], 101.575.
On to `Cc1cc(=O)[nH]c(C)c1C(=O)N1CCC(N2CCCC(CO)C2)CC1` (centres unmarked) [CBK307158], for which the “% of control remaining” value amounted to 83.0477.
As for `O=C(Cc1ccsc1)N1CCN(C(=O)c2ccco2)CC1` [CBK144446], the figure is 84.9889; as for `CC(CNC(=O)COc1cc(Cl)c(Cl)cc1Cl)CN(C)C` (centres unmarked) [CBK266766], 105.21; as for `CC(C)(C)c1ccc(-c2ccc3ccc(N)nc3n2)cc1` [CBK061872], 75.291.
As for `OCCn1c(COc2cccc3cccnc23)nc2ccccc21` [CBK269942], the figure is 76.1981; as for `O=C(c1[nH]c2ccccc2c1NS(=O)(=O)Cc1ccccc1)N1CCOCC1` [CBK050067], 80.4843; as for `O=C(NCc1cccnc1)C(=O)Nc1cc2c3c(c1)CCC(=O)N3CCC2` [CBK287728], 78.5594.
As for `CCCN(CC1CC1)C(=O)Cn1c([C@@H]2CCCO2)cc2cccnc21` [CBK282871], the figure is 83.6692.
With `O=C(CNS(=O)(=O)c1ccc(Cl)c(Cl)c1Cl)N1CCOCC1` [CBK034472], the “% of control remaining” value is listed as 101.511.
As for `O=C(NCCNCc1ccccc1)c1ccccc1` [CBK012505], the figure is 22.7125; as for `CC(C)C(CCC(=O)Nc1ccccc1[N+](=O)[O-])C(=O)O` (centres unmarked) [CBK268356], 108.622; as for `Cc1ccccc1CSCC(=O)Nc1c[nH]c(=O)[nH]c1=O` [CBK269790], 77.9342.
For `CC(C)(C)Nc1c(C2CCCN(C(=O)C3CC3)C2)nc2ccccn12` (centres unmarked) [CBK284759], the “% of control remaining” value is on record as 79.4101.
As for `CC1(C)CC(/N=C(\c2ccccc2)c2ccc(O)cc2O)CC(C)(C)N1` [CBK262004], the figure is 86.2874; as for `COCc1nnc(NS(=O)(=O)c2ccc(Br)cc2)s1` [CBK045526], 122.949.
As for `CCCCCc1c(C)nc(-c2ccccn2)nc1O` [CBK017441], the figure is 42.2686.
As for `O=c1c(Oc2ccc3ccccc3c2)c(C(F)(F)F)oc2c(CN3CCOCC3)c(O)ccc12` [CBK264487], the figure is 111.437; as for `Cc1cccc(OCC(C)NC(=O)N2CCCC2c2cnn(C)c2)c1` (centres unmarked) [CBK304100], 94.1555; as for `CN(C)C(=O)Cn1c(=O)n(Cc2cccs2)c2ncccc21` [CBK283902], 98.0982.
Regarding `Cc1ccc(-c2nnc3s/c(=C\c4ccc([N+](=O)[O-])cc4)c(=O)n23)cc1` [CBK264882], the “% of control remaining” value is 100.345.
As for `O=C(CCCOc1ccccc1)Nc1cccc(N2CCNCC2)c1` [CBK028290T], the figure is 98.7993.
As for `Cc1cc(NC(=O)C2CCN(c3ncccc3C#N)CC2)no1` [CBK305689], the figure is 60.7315; as for `CS(=O)(=O)N(Cc1ccc(Cl)cc1)c1ccc(C(=O)Nc2ccccc2C(F)(F)F)cc1` [CBK263988], 116.679; as for `CCOc1ccc(OCC)c2c1n(C)c(SC)[n+]2C` [CBK005720G], 2.855.
For the compound `Cc1nc(C)c(-c2cnc(NS(=O)(=O)c3ccc(Cl)cc3)nc2)s1` [CBK005935], the “% of control remaining” value was 104.98.
As for `Cc1cc(C(=O)NC2CCCc3c2cnn3-c2ccc(F)cc2)on1` (centres unmarked) [CBK282310], the figure is 64.3787.
As for `CN1C(=O)COc2ccccc2C/C=C/C[C@@H]2[C@H]1CCCN2S(=O)(=O)c1cccnc1` [CBK292067], the figure is 104.613; as for `Cc1ccc(NC(=O)OCC(F)(F)C(F)F)cc1Cl` [CBK026548], 33.1989.
As for `Cc1cc(C(=O)Nc2c(C)noc2C)n[nH]1` [CBK200395], the figure is 95.0966.
As to `COC(=O)c1sc2[nH]c(CN(C)Cc3ccco3)nc(=O)c2c1C` [CBK306047], the “% of control remaining” value was found to be 39.5552.
As for `Cc1ccc(S(=O)(=O)N2C[C@H]3C[C@H](NC(=O)C(C)C)[C@H]3C2)cc1` [CBK285317], the figure is 90.1447.
As for `O=C(O)c1cc(S(=O)(=O)N2CCCCC2)c(Cl)cc1N1CCCCC1` [CBK263408], the figure is 89.0288.
As for `Cc1c(C(=O)Nc2cccc(-c3nc4ccccc4s3)c2)sc2nc[nH]c(=O)c12` [CBK285825], the figure is 87.1219.
Turning to `CN(C)CCN(C)c1nc(-c2ccc(C(C)(C)C)cc2)cn2ccnc12` [CBK066477], the “% of control remaining” value is recorded as 108.705.
As for `CCC1CCCCN1C(=O)c1ccc(C)s1` (centres unmarked) [CBK084526], the figure is 101.489.
As for `Cc1ccc2nsnc2c1NC(=O)COc1ccccc1[N+](=O)[O-]` [CBK263779], the figure is 96.8.
As for `COCC1CCCN1C(=O)c1cnn2c(C)c(Cc3ccc(OC)cc3)c(C)nc12` (centres unmarked) [CBK162190], the figure is 93.8778; as for `N#Cc1ccsc1NC(=O)CSc1nc[nH]n1` [CBK267221], 99.5107; as for `CC(NC(=O)c1nn(-c2ccc(F)cc2)c2c1CCCC2)c1ccc2c(c1)OCCO2` (centres unmarked) [CBK296682], 75.3788.
For the compound `CCC(=O)NC(N(Cc1ccccc1)Cc1ccccc1)C(Cl)(Cl)Cl` (centres unmarked) [CBK261022], the “% of control remaining” value came out at 78.5325.
As for `O=C(O)CCNS(=O)(=O)c1ccc(I)cc1` [CBK268968], the figure is 96.2583.
As for `COc1ccccc1-c1ccc(CC2(C(=O)NCC3CCCCC3)CCOCC2)cc1` [CBK286519], the figure is 82.2324.
As for `Cc1cc(-c2cnoc2C2CCCN(C(=O)c3cccs3)C2)on1` (centres unmarked) [CBK284480], the figure is 54.7233; as for `Cn1cc(CCNC(=O)NC2CCN(c3ncccn3)CC2)cn1` [CBK305612], 41.8012.
Take `N#CCCn1cc(C(=O)N2CCCCC2)c(-c2cc3ccccc3o2)n1` [CBK306206]: the “% of control remaining” value came to 55.4227.
As for `Cc1ccc(-n2c3c(cc(C(=O)NCCCN4CCOCC4)c2=O)C(=O)CCC3)cc1` [CBK266094], the figure is 131.421.
As for `COc1cc(NC(=O)CCN2CCN(C)CC2)cc(OC)c1` [CBK264193], the figure is 113.167; as for `Cc1cc(CNC(=O)N(C)C2CCN(C)C2)no1` (centres unmarked) [CBK155992], 94.5684.

These data come from article PMC12040169 (PLOS Biology, 2025).
